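Tested at 5 concentrations; 48 h exposure; 96-well plates; endpoints linearly interpolated, else capped at highest concentration. TGI: total growth inhibition.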 The source holds more than one record for some entries. The list is limited to them. The source may hold further records. The tests behind the records often covered other concentration ranges, which the source does not state; some values may only mark the edge of a range.

TGI data for three compounds are collected here from PubChem BioAssay (NCI).

Some test systems named below: IGROV1 ovarian; BT-549 breast; NCI-H226 lung; SW-620 colon; T-47D breast.
Experiment in all cases: inhibition of tumour cell growth, NCI panel, 48 h

Turning to `C[C@]12CC[C@H](OC3OC(O)C(O)C(O)C3O)C=C1CCC1C2CC[C@]2(C)[C@@H](c3ccc(=O)oc3)CC[C@]12O` (stereo not given in full), in the test with IGROV1 ovarian, the TGI was 537 nM and 50 µM.

Regarding `CCCCCCCCCCCC[C@H](O)[C@H]1CC[C@H]([C@H](O)CCCC[C@H](O)CCCCC[C@@H](O)CC2=C[C@H](C)OC2=O)O1`, the TGI with BT-549 breast is 2.14 µM and 26.7 µM. For `CCCCCc1c(C)[nH]c(/C=C2\N=C(c3ccc[nH]3)C=C2Oc2ccccc2)c1C`, the TGI in the test with NCI-H226 lung was 108 nM and 3.21 µM; in the test on SW-620 colon, 1.01 µM and 74.8 nM; with T-47D breast it was 76.8 nM and 1.22 µM.
